Assay results as given in PubChem BioAssay AID995 (National Center for Advancing Translational Sciences (NCATS), 2007).
Screen size: about 72,000 compounds; about 710 (0.99%) were called active. Inconclusive results, whose numbers are uncertain, are shown with a selection of clear calls. Calls come from the whole dose curve; as a rule, active = well fitted inhibition curve with a large enough effect; inconclusive = small, poorly fitted or top-dose-only effect; inactive = no such curve, though single readings can be large or run the other way. A potency beside an inconclusive call is a rough fit, not a confirmed value.

Test: qHTS Assay for Inhibitors of the ERK Signaling Pathway using a Homogeneous Screening Assay; note: nearly all actives have a fitted effect of over 55% in size
Conditions: HEK293-V1b, vasopressin-stimulated pERK AlphaScreen; activity, negative = inhibition: at 57.5 µM (top of the series) unless noted
Summary of the method: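 HEK293 cells stably expressing V1b receptor, seeded overnight in 1% FBS, were treated with compounds for 30 min at 37C, then stimulated 5 min with 25 nM vasopressin; phospho-ERK read by AlphaScreen SureFire after lysis.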
% is set by controls: 0 for no effect and ±100 for the full control effect; potency is the fitted concentration of half-maximal effect; tags give direction and shape of the fitted curve.

| Structure (SMILES) | Potency | activity, negative = inhibition |
| --- | --- | --- |
| COc1ccc(OC)c(C(=O)CSc2nc3c(c(=O)n(C)c(=O)n3C)n2C(C)C)c1 | inconclusive: 3.16 µM [inhibitor, partial curve, poor fit] | – |
| COC(=O)c1ccc(C(NC(=O)OCc2ccccc2)/C(=C/[C@@H](C)C(=O)NCc2ccc(S(C)(=O)=O)cc2)c2cccnc2)cc1 (stereo partly drawn) | inactive | – |
| CCCN1Cc2cccc(C(=O)Nc3ccc4c(c3)OCCO4)c2C1=O | inconclusive: 12.6 µM [inhibitor, partial curve] | – |
| O=C1c2cccc(O)c2C(=O)c2c(O)cccc21 | inconclusive: 3.16 µM [inhibitor, full curve] | – |
| O=C1c2c(O)cc(O)cc2O[C@@H](c2ccc(O)c(O)c2)[C@H]1O | inactive | – |
| COc1ccc(OC)c(NC(=O)Cc2coc3ccc(C)cc23)c1 | inconclusive: 6.31 µM [inhibitor, partial curve] | – |
| NNC(=O)Cc1cccnc1 | – | inactive: -15% [at 11.5 µM] |
| Cc1ccc(-c2cc(C(=O)Nc3cccnc3)c3ccccc3n2)o1 | inactive | – |
| O=C(Nc1cccnc1)c1cn(-c2ccccc2)nc1-c1cccs1 | inconclusive: 31.6 µM [inhibitor, partial curve] | – |
| NS(=O)(=O)c1ccc(Nc2nc(-c3ccc(O)cc3)cs2)cc1 | inconclusive: 15.8 µM [inhibitor, partial curve] | – |
| O=C(Nc1ccc(N2CCN(C(=O)c3ccc(Cl)cc3)CC2)cc1)c1cccnc1 | – | inconclusive: -33.8% [inhibitor] |
| CCCCCc1nnc(NC(=O)C2CCCO2)s1 (stereo not drawn) | inactive | – |
| COc1cc(-c2nnc(COc3ccc4ccccc4c3)o2)cc(OC)c1OC | inconclusive: 1 µM [inhibitor, full curve] | – |
| COC(=O)NC(c1ccc(F)cc1)C(C(C)=O)C(=O)OC (stereo not drawn) | – | inactive: 9.05% [at 11.5 µM] |
| COc1ccc2nccc(SCC(=O)O)c2c1 | – | inactive: -3.92% [at 11.5 µM] |
| Cn1ncc(C#N)c1/N=C/N(Cc1ccccc1)Cc1ccccc1 | inconclusive: 12.6 µM [inhibitor, partial curve] | – |
| COc1ccc2[nH]cc(CCNc3ncnc4ccc(-c5cccnc5)cc34)c2c1 | inconclusive: 2 µM [inhibitor, full curve] | – |
| CC(C)(C)c1cc(CN(CCO)CCO)cc(C(C)(C)C)c1O | inconclusive: 12.6 µM [inhibitor, partial curve] | – |
| NS(=O)(=O)c1ccc(NC=C2C(=O)OC3(CCCCC3)OC2=O)cc1 | inconclusive: 39.8 µM [inhibitor, single point] | – |
| Cc1oc(-c2ccc(Cl)cc2)nc1CN1CCC(C(=O)NCCCN2CCCC2=O)CC1 | inconclusive: 20 µM [inhibitor, single point] | – |
| COc1ccc(-c2nc3cnc(N4CCNCC4)nc3n(Cc3cccs3)c2=O)cc1 | inactive | – |
| Cc1cc(NC(=O)CSc2ccc3nnc(-c4ccc(Cl)cc4)n3n2)no1 | inactive | – |
| CCOC(=O)CNc1ccc2c(c1)OCO2 | inconclusive: 15.8 µM [inhibitor, partial curve] | – |
| O=C(CSc1ncn(-c2ccccc2)n1)Nc1nc2ccccc2s1 | inconclusive: 39.8 µM [inhibitor, single point] | – |
| S=c1[nH]nc(-c2ccco2)n1-c1cccc2ccccc12 | inactive | – |

| Structure (SMILES) | Potency | activity, negative = inhibition |
| --- | --- | --- |
| CSc1nc2cc(S(=O)(=O)N3CCCCC3)ccc2s1 | – | inactive: 3.64% [at 11.5 µM] |
| Cc1cccc(NC(=O)C2CCN(S(=O)(=O)c3cccc4cccnc34)CC2)c1 | inconclusive: 25.1 µM [inhibitor, partial curve, poor fit] | – |
| Cc1cc(-n2c(C)cc(C(=O)CN3C(=O)NC4(CCCCCC4)C3=O)c2C)no1 | inconclusive: 31.6 µM [inhibitor, single point] | – |
| CC1(C)Cc2c(sc3nc(SCC(=O)N4CCOCC4)nc(N)c23)CO1 | inconclusive: 39.8 µM [inhibitor, single point] | – |
| O=C(Cc1ccc(Cl)c(Cl)c1)OCC(=O)c1ccc[nH]1 | inconclusive: 31.6 µM [inhibitor, single point] | – |
| O=C(CSCc1ccc(Cl)cc1)c1ccco1 | inconclusive: 39.8 µM [inhibitor, single point] | – |
| Cc1nc2c(OCc3ccccc3)cccn2c1CC#N | inconclusive: 31.6 µM [inhibitor, single point] | – |
| CCN(CC)C(=O)Cn1cnc2ccccc2c1=O | inactive | – |
| Nc1ccc(N2CCCCC2)cc1N1CCCCC1 | inconclusive: 0.0398 µM [inhibitor, full curve, poor fit] | – |
| CCCS(=O)(=O)c1nc(S(=O)(=O)c2ccc(C)cc2)c(NCCCN2CCOCC2)s1 | inconclusive: 20 µM [inhibitor, single point] | – |
| c1ccc(N2CCN(CCCOc3ccc4c(c3)OCO4)CC2)cc1 | inconclusive: 31.6 µM [inhibitor, single point] | – |
| NC(=O)c1cc2ccc(O)cc2oc1=Nc1ccccc1 | active: 7.94 µM | – |
| CCn1c2ccccc2c2nnc(SCN3C(=O)c4ccccc4C3=O)nc21 | inconclusive: 3.98 µM [inhibitor, full curve] | – |
| O=C1N=C(N2CCOCC2)S/C1=C1\C(=O)N(Cc2ccccc2)c2ccc(Br)cc21 | inactive | – |
| CCn1c(SCC(=O)N2CCc3ccccc3C2)nc2c1c(=O)n(C)c(=O)n2C | inconclusive: 1 µM [inhibitor, partial curve] | – |
| O=C(CCc1nc2ccccc2[nH]1)NCc1ccc2c(c1)OCO2 | inactive | – |
| COc1cc(Nc2cc(C)nc3ncnn23)cc(OC)c1 | inconclusive: 10 µM [inhibitor, partial curve] | – |
| NCCCCCc1nnc(SCc2cccc(Cl)c2)o1 | inactive | – |
| CCCn1c(=N)n(CC(=O)C(C)(C)C)c2ccccc21 | inconclusive: 31.6 µM [inhibitor, single point] | – |
| O=C(OCC(=O)N1CCCCC1)c1cc2ccccc2cc1O | inconclusive: 39.8 µM [inhibitor, single point] | – |
| N[C@@H](C(=O)O)c1ccc(O)c(C(=O)O)c1 | inactive | – |
| CC(C)=CCc1c(O)cc2occ(-c3ccc4c(c3)OCO4)c(=O)c2c1O | inconclusive: 25.1 µM [inhibitor, single point] | – |
| COc1ccc(-c2cc(C(F)F)n3ncc(C(=O)NCCCN4CCCC4=O)c3n2)cc1 | inconclusive: 10 µM [inhibitor, partial curve] | – |
| COCCn1c(=O)c(-c2ccc(F)cc2)nc2cnc(N(C)C)nc21 | inactive | – |
| O=C(Nc1cc(C(F)(F)F)ccc1N1CCCCC1)c1ccco1 | inactive | – |

| Structure (SMILES) | Potency | activity, negative = inhibition |
| --- | --- | --- |
| COC(=O)[C@@]1(Cc2ccc(OC)cc2)[C@H]2c3cc(C(=O)N(C)C)n(Cc4ccc(OC(F)(F)F)cc4)c3C[C@H]2CN1C(=O)c1ccccc1 | inactive | – |
| COc1cccc(-c2nccc(-n3ccnc3)n2)c1 | inconclusive: 31.6 µM [inhibitor, partial curve] | – |
| O=C1c2ccccc2-c2n[nH]c3cccc1c23 | active: 10 µM | – |
| O=C(c1ccc(OCCN2CCCCC2)cc1)c1c(-c2ccc(O)cc2)sc2cc(O)ccc12 | – | inconclusive: -39.4% [inhibitor] [at 25.7 µM] |
| CC(C)[C@H](CO)Nc1nc(Nc2cc(N)cc(Cl)c2)c2ncn(C(C)C)c2n1 | inconclusive: 31.6 µM [inhibitor, partial curve, poor fit] | – |
| COC(C(C)/C=C/CC(=O)OCCCc1ccccc1)C1CCCCC1 (stereo not drawn) | – | inactive: 9.73% [at 11.5 µM] |
| c1nc2sc3c(c2c2nnnn12)CCCC3 | inconclusive: 25.1 µM [inhibitor, single point] | – |
| Cc1cccc(Nc2nc(N)nc(CN3CCC(C)CC3)n2)c1C | inactive | – |
| N#CCCN1CCN(C(=S)c2ccc(-c3cc(Cl)ccc3Cl)o2)CC1 | inactive | – |
| N#Cc1cccc(-c2nc(NCc3cccnc3)c3ccccc3n2)c1 | inconclusive: 12.6 µM [inhibitor, partial curve] | – |
| CCn1c(N2CCN(CC(=O)c3c[nH]c4ccccc34)CC2)nc2c1c(=O)[nH]c(=O)n2C | inactive | – |
| Cc1ccc(Nc2nnc(SCc3cc(=O)n4ccsc4n3)s2)c(C)c1 | inconclusive: 15.8 µM [inhibitor, single point] | – |
| Cc1cc(OCCCn2ccnc2)cc(C)c1Cl | active: 25.1 µM | – |
| Cn1c(=O)c2c(nc(Sc3nc4ccccc4n3CC(=O)N3CCCCC3)n2C)n(C)c1=O | inconclusive: 6.31 µM [inhibitor, partial curve] | – |
| O=C(CSc1cccc2cccnc12)N1CCCC1 | inactive | – |
| COC(=O)c1ccc(CSc2ccc3nnc(-c4ccc(OC)c(OC)c4)n3n2)o1 | inactive | – |
| COc1cc(C[C@H]2C(=O)OC[C@@H]2Cc2ccc(OC)c(OC)c2)ccc1O | inconclusive: 12.6 µM [inhibitor, partial curve, poor fit] | – |
| COCCn1c(=O)c(-c2ccccc2)nc2cnc(Oc3ccc(OC)cc3)nc21 | inconclusive: 6.31 µM [inhibitor, partial curve] | – |
| c1csc(CNc2ncncc2-c2ccc3c(c2)OCO3)c1 | active: 6.31 µM | – |
| CCN(CC)c1ccc(NC(=O)c2cc3ccccc3o2)c(C)c1 | inconclusive: 39.8 µM [inhibitor, single point] | – |
| CC(C)OC(=O)c1ccc(N2C(=O)C3CC=CCC3C2=O)cc1 (stereo not drawn) | inactive | – |
| O=C(NC1CCCCC1)N1CCC(n2c(=O)[nH]c3ccccc32)CC1 | inconclusive: 20 µM [inhibitor, single point] | – |
| CN(C)c1nc2c(Br)c(Br)c(Br)c(Br)c2[nH]1 | inconclusive: 39.8 µM [inhibitor, single point] | – |
